For 60 compounds, activation results are on record in PubChem BioAssay AID1346428 (National Center for Advancing Translational Sciences (NCATS), 2018).

“And” between values parts separate entries of the source, which are not always exact repeats. Identical values can stand only once. About 1,200 (2.5%) of roughly 48,000 compounds were called active. Roughly 2% stayed inconclusive and do not appear here.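 How the source made its calls: active means activation of at least 60% and not above a set upper limit (about 1 call in 100 departs from these limits); inconclusive means activation of 40% to 60%, or above that upper limit; inactive means activation under 40%.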 Some of the results follow. A structure can be active in one record and inactive in another.

This assay addresses Probable G-protein coupled receptor 32 (Homo sapiens) (UniProt O75388). The assay is described as follows: qHTS for Agonists of Human Resolvin D1 Receptor DRV1. The conditions noted are these: CHO-K1 GPR32 beta-arrestin PathHunter luminescence, 90 min; at 76.9 µM; stronger effect = higher value; zero percent set by DMSO-only wells. The source says: Endogenous resolution of inflammation is known to be transduced through various GPCRs and their natural mediators of lipid nature. Resolvin D1 (RvD1) is one of the active players in resolution of acute inflammation through regulation of anti-inflammatory pathways; it is known to enhance phagocytosis of human macrophages, limits neutrophils infiltration, etc. […] The search for GPR32-activating small molecules with anti-inflammatory effects similar to its natural omega-3 derivative ligand in order to use them as research tools for further studies of inflammation and its resolution was the goal of this screening project. For primary screening assay, we used CHO-K1 GPR32 beta-arrestin cell line (DiscoveRx, #93-0321C2A) and the PathHunter(R) beta-Arrestin Assay (DiscoveRx) which measures recruitment of beta-arrestin to the GPR32 and generates chemiluminescent signal. These engineered cells stably transfected with GPR32 co-express GPR32-fused small 42-amino acid fragment of beta-Gal called ProLinktrade mark, and […] -tagged beta-Arrestin fusion protein. When GPR32 is activated by a ligand, it stimulates binding of beta -Arrestin to ProLink-tagged GPR32, and two parts of beta-Gal complement forming a functional enzyme. Upon substrate (PathHunter(R) Detection reagent) addition, beta-Gal hydrolyzes it and generates a chemiluminescent signal.
UniProt O75388, sequence (O75388 whole entry, looked up): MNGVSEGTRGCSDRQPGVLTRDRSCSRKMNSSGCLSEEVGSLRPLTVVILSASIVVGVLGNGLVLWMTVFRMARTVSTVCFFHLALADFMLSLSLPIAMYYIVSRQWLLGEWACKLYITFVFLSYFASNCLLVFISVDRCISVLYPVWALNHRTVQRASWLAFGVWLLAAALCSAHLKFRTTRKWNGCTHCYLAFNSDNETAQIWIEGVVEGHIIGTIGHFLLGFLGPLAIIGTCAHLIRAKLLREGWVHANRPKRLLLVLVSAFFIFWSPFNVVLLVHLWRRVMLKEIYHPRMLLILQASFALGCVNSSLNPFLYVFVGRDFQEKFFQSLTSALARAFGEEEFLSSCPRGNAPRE
The cells were thawed and plated in thawing media containing F-12 HAM (Invitrogen, #11765-054), 10% FBS (Invitrogen, #10082), 1x Glutamine, and 1x Pen/Strep onto the 175-mm flask for 24 hours. Then, thawing media was replaced with Growth media which contains 800microg/mL Geneticin (Invitrogen, #10131) and 300microg/mL Hygromycin B (Invitrogen, #10687) in addition to described above. For the assay, the cells were harvested at ~80% confluent stage with Cell Dissociation buffer (Gibco, #13151), and seeded at 2,500 cells/ 3microL/well in assay media (PathHunter(R) Cell Plating Reagent, DiscoverX, #93-0563R1B) using MultiDrop Combi dispenser (Thermo Scientific, Logan, UT) onto white solid bottom tissue culture-treated 1536-well plates (Greiner # 789173-F) and allowed to attach overnight at 37 degrees C, 95% humidity, 5% CO2, . Next, 23nL/well of compound solutions in DMSO were added with a Pin Tool (Kalypsis, San Diego, CA) to the assay plates. As the basal control (EC0), 23 nL/well of DMSO was used on each plate. The cells were incubated in the presence of compounds or DMSO for 90 minutes at 37 degrees C, 5% CO2. Subsequently, 1.5microL/well of PathHunter(R) Detection Reagent prepared per the manufacturer's instructions was added to the assay plates with BioRAPTR FRDtrade mark dispenser (Beckman Coulter, San Francisco, CA) and incubated for 1 hour at ambient temperature prior to the measurement of the luminescent signal on ViewLux(R) uHTS Microplate Imager (Perkin Elmer, Waltham, MA).
For the compound `CN1CC[C@@]2(C)c3cc(OC(=O)Nc4ccccc4)ccc3N(C)[C@@H]12`, the activation was inactive: 31.9%.

Take `Oc1ccc(Cl)cc1`: the activation was inactive: 19%.

`Clc1ccc(CCC(Cn2ccnc2)Sc2c(Cl)cccc2Cl)cc1` (stereo not given): the activation is inactive: -106%.

In the case of `CC(C)NP(=O)(NC(C)C)OP(=O)(NC(C)C)NC(C)C`, the activation was inactive: -2.41%.

Take `C[N+](C)(C)CCOC(=O)C(O)(c1ccccc1)c1ccccc1`: the activation was inactive: -0.378%.

As to `CCC(=O)C(CCN(C)C)(c1ccccc1)c1ccccc1`, the activation was inactive: -26.8%.

Turning to `CC(=O)c1cccc(NC(=O)c2cccn(Cc3cccc(C)c3)c2=O)c1`, the activation is inactive: 13.6%.

As to `CCSc1nnc(NC(=O)c2cccn(Cc3ccccc3Cl)c2=O)s1`, the activation was inactive: 11.8%.

Turning to `Cc1c2ccncc2c(C)c2c1[nH]c1ccccc12`, the activation was inactive: -8%.

As for `CCOc1ccccc1NC(=O)c1cccn(Cc2ccccc2C)c1=O`, the activation was inactive: 13.6%.

Regarding `N#Cc1cc2c(nc1SCC(=O)Nc1cccc(C(F)(F)F)c1)C1CCN2CC1`, the activation is active: 63.5%.

Consider `COc1ccc(C(c2c(O)c3ccccc3oc2=O)c2c(C)n(C)n(-c3ccccc3)c2=O)cc1` (stereo not given), for which the activation is inactive: 13.3%.

`O=C1CN2CCOC2(c2ccccc2Cl)c2cc(Cl)ccc2N1` (stereo not given): the activation was inactive: 0.239%.

Consider `CC(C)(O)[C@@H]1C2OC(=O)[C@@H]1[C@]1(O)C[C@H]3O[C@]34C(=O)O[C@H]2[C@]14C` (tested in a mixture with another compound), for which the activation is inactive: -5.41%.

Turning to `Cc1ccc(NC(=O)CN2C(=O)CN=C(c3ccccc3)c3ccccc32)cc1Cl`, the activation is inactive: -26.4%.

In the case of `CC(=O)NBr`, the activation was inactive: 5.14%.

Consider `O=C(O)COc1ccccc1`, for which the activation is inactive: -0.19%.

On to `COc1cccc(-c2nn3c(=O)cc(CN4CCN(C(=O)COc5ccccc5C)CC4)nc3s2)c1`, for which the activation is inactive: 22.4%.

Regarding `Cc1ccc(OCC(=O)Nc2ccc(Cl)cc2C(=O)c2ccccc2)cc1C`, the activation was inactive: 3.19%.

Turning to `CC1N=C(N)OC1c1ccccc1` (stereo not given), the activation is inactive: -12.2%.

For `Cc1nccc2c1[nH]c1ccccc12`, the activation was inactive: 14.1%.

Regarding `CCCN1CCc2cccc3c2[C@H]1Cc1ccc(O)c(O)c1-3`, the activation is inactive: 4.39%.

Regarding `NC(N)=NOCCC(N)C(=O)O` (stereo not given), the activation is inactive: -4.07%.

Turning to `CCCN(CCC)C1CCc2cccc(O)c2C1` (stereo not given), the activation is inactive: 2.81%.

Turning to `Cc1nnc(NC(=O)c2cccn(Cc3cccc(F)c3)c2=O)s1`, the activation is inactive: 23.9%.

On to `O=c1oc2ccccc2c(O)c1Cc1c(O)c2ccccc2oc1=O`, for which the activation is inactive: -7.9%.

For `Cc1ccccc1-n1c(/C=C/c2ccc(N(C)C)cc2)nc2ccccc2c1=O`, the activation is inactive: -25.1%.

Consider `O=[N+]([O-])c1cc([As](=O)(O)O)ccc1O`, for which the activation is inactive: 4.34%.

Regarding `O=C(c1ccc2c(c1)N(Cc1ccc(F)cc1)C(=O)c1ccccc1S2)N1CCC2(CC1)OCCO2`, the activation was inactive: -11.7%.

Take `c1ccc2c(c1)[I+]c1ccccc1-2`: the activation is active: 85.7%.

Turning to `COc1ccc(OCC(=O)N2CCN(Cc3ccc(SC)cc3)CC2)cc1`, the activation was inactive: -6.34%.

Turning to `COc1ccc2c(c[n+](C)c3c4cc5c(cc4ccc23)OCO5)c1OC`, the activation was active: 66.5%.

Turning to `O=C(O)c1ccc2[nH]cc(CCCCN3CC=C(c4ccccc4)CC3)c2c1`, the activation is inactive: 12.7%.

In the case of `CNc1ccc2oc(C[C@H]3O[C@@]4(CC[C@H]3C)O[C@H]([C@H](C)C(=O)c3ccc[nH]3)[C@H](C)C[C@H]4C)nc2c1C(=O)O`, the activation is inactive: -37.9%.

Turning to `CC(C)c1ccc(OCC(=O)N2CCN(CCc3ccccn3)CC2)cc1`, the activation is inactive: 17.3%.

For `CN1CC[C@@]2(C)c3cc(O)ccc3N(C)C12` (stereo not given in full), the activation is inactive: 13.4%.

On to `Cc1ccc(OCC(=O)N2CCN(CCc3ccncc3)CC2)cc1`, for which the activation was inactive: -14.3%.

With `Cc1cccc(Cn2cccc(C(=O)Nc3ccc(F)cc3F)c2=O)c1`, the activation is inactive: 9.44%.

In the case of `COc1ccc(OCC(=O)N2CCN(Cc3cc(=O)n4nc(-c5ccc(OC)cc5)sc4n3)CC2)cc1`, the activation is inactive: -1.08%.

On to `Cc1ccc(C(C)C)c(OCC(=O)N2CCN(CCc3ccncc3)CC2)c1`, for which the activation was inactive: 11.1%.

As for `CN(C)C(=O)Oc1cc(OC(=O)N(C)C)cc(C(O)CNC(C)(C)C)c1` (stereo not given), the activation is inactive: -5.22%.

Consider `CN(C(=O)Cc1ccc(Cl)c(Cl)c1)C(CN1CCCC1)c1cccc(OCC(=O)O)c1` (stereo not given), for which the activation was inactive: -12.5%.

For `NCCc1ccc(O)cc1`, the activation is inactive: 6.88% and inactive: 4.41%.

Regarding `CNC(C)Cc1ccc2c(c1)OCO2` (stereo not given), the activation was inactive: -43%.

With `N[C@@]1(C(=O)O)CC[C@@H](C(=O)O)C1`, the activation is inactive: 0.22%.

In the case of `O=C(CCCCl)c1ccc(F)cc1`, the activation is inactive: -5.47%.

Regarding `C[N+]1(C)CCN(c2ccccc2)CC1`, the activation was inactive: -0.125%.

On to `ClC1=C(Cl)[C@]2(Cl)[C@@H]3[C@@H]4C[C@@H]([C@H]5O[C@@H]45)[C@@H]3[C@@]1(Cl)C2(Cl)Cl`, for which the activation was active: 113%.

As for `CCC1(c2ccc(N)cc2)CCC(=O)NC1=O` (stereo not given), the activation was inactive: -5.48% and inactive: 0.972%.

In the case of `C[C@H](Cc1ccc2c(c1)OC(C(=O)O)(C(=O)O)O2)NC[C@H](O)c1cccc(Cl)c1`, the activation was inactive: 10.9%.

Consider `Cc1ccc(C(=O)Nc2ccccc2)cc1S(=O)(=O)N1CCCC1`, for which the activation is inactive: 44%.

With `C[C@@H](N)[C@@H](O)c1ccccc1`, the activation was inactive: -4.4%.

Turning to `CCCN1CCC[C@H](c2cccc(O)c2)C1`, the activation is inactive: 0.951%.

Regarding `NC(=O)COc1c(F)cc(SCCNS(=O)(=O)c2ccccc2)cc1F`, the activation is inactive: -3.23%.

With `C#CC(O)(C=CCl)CC` (stereo not given), the activation was inactive: 21.4%.

Take `C[C@@H]1O[C@@H](O[C@H]2C[C@@H](O)[C@]3(CO)[C@H]4[C@H](O)C[C@]5(C)[C@@H](C6=CC(=O)OC6)CC[C@]5(O)[C@@H]4CC[C@]3(O)C2)[C@H](O)[C@H](O)[C@H]1O`: the activation is active: 65.2% and inactive: 16.3%.

`COc1cc(CCN)cc(OC)c1OC`: the activation is inactive: -3.94%.

On to `Clc1cc(I)cc(Cl)c1NC1=NCCN1`, for which the activation is inactive: -8%.

Regarding `CCc1ccc(OCC(=O)N2CCN(CCc3ccncc3)CC2)cc1`, the activation is inactive: -6.58%.

For `CC1NCCOC1c1ccccc1` (stereo not given), the activation is inactive: -12.9%.
